Changes are numbered by the printed parent chain. The list shows a part of the results.
T1: UNK ZnF1-3 (human, UniProt Q9C0B0 31-174)
T1 sequence: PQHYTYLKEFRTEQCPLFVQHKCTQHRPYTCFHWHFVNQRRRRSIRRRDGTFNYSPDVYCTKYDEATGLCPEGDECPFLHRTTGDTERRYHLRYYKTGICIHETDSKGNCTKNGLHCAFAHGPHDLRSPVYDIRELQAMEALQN

B1: 98363965_98364085_502_CDS_ENSMUSG00000022992_ENSMUST00000116400|mouse|control|control (ssRNA)
RNA: GGGAGUUCUACAGUCCGACGAUCCUUUGGGGCAGCACUGGGGCACCUUUUUCCAUUCUUCGUCGAGACGUAACUACAUUGUUUGAAGGGUGCAUUCUUGUCUUCAAGAAUGUGCUUAAUGCAGAACUCCUGCCCCUCCAGCCGCAACAGAGGAUUGAGCAUCA
B2: chr1:58468927:58468928:-_ENSMUSG00000026034_ENSMUST00000148330|mus_mus|mus_mus_mus_hu_False|48_48 (ssRNA)
RNA: GGGAGUUCUACAGUCCGACGAUCAAUUACUGAAAAAGAUGUUCAUUACCUUAGCUAUGUACUUAAUGAACCAAAUUACCCAAACAACAUAAAAUGUGCAAUAUAAAAAUGUUAAGAAUUUACAAAGCUGUACAAAAUAACUUACAACAGAGGAUUGAGCAUCA
B3: chr7:134027783:134027784:-_ENSMUSG00000059981_ENSMUST00000071268|mus_mus|FALSE|FALSE (ssRNA)
RNA: GGGAGUUCUACAGUCCGACGAUCGGAUGAACCCCGGAUAUUGGUGCACACAGGGUCCUGAAUCCCAGGUAUUUUAAAUUCUAUAAAACAGAGACCCAGGUUUGUAAAGGUUGGGACUUUGGGUCCCAGAUAUCUGAUAUACGACAACAGAGGAUUGAGCAUCA
B4: chr7:56126341:56126342:+_ENSG00000146731_ENST00000540286|hu_mus|hu_hu_hu_mus_True|38_38 (ssRNA)
RNA: GGGAGUUCUACAGUCCGACGAUCCAUGUUUCUCCUCUUGGCUCUGCGCAGAGCUACGAUCCCUUCUUUCGCAAGGGCAUCUAAGGAAAAGGGGUCAAUUCCCUUUUGAUUAAUAACGACAAAUCCUUUAUCUGAGUCACCACACAACAGAGGAUUGAGCAUCA
B5: chr20:17587764:17587765:+_ENSG00000125868_ENST00000474024|hu_hu|motif|central (ssRNA)
RNA: GGGAGUUCUACAGUCCGACGAUCGUGGCACUGAAUAAUCUACACAGGGCAUCCUUCAAAGGCUACAAUUAAGGAUCCACCGGACUUUUCAGCAAUACAAGCCCGAUUGAGAUCUUCUGGUCCAUUUGCUUGACAUUCAUGUUUCAACAGAGGAUUGAGCAUCA
B6: chr3:41280641:41280642:+_ENSG00000168036_ENST00000349496|hu_hu|motif|central (ssRNA)
RNA: GGGAGUUCUACAGUCCGACGAUCCAUGGGGUCCAUACCCAAGGCAUCCUGGCCAUAUCCACCAGAGUGAAAAGAACGAUAGCGGGGAUCAUCCUGGCGAUAUCCAAGGGGUUCUCCCUGGGCACCAAUAUCAAGUCCAAGAUCCAACAGAGGAUUGAGCAUCA
B7: chr20:32246340:32246341:-_ENSG00000125967_ENST00000246190|hu_hu|FALSE|FALSE (ssRNA)
RNA: GGGAGUUCUACAGUCCGACGAUCUCUCCAGGAGGCCUCAUCCUGCCAGAACUCAUACAGGGUGAAGGAGGCACCGUCCAGCAUCUUCUGGGCGGACACAUGCAGACAAUGGCUCUGGGCCCCUGUGAAGUCCACAUAGCAGCGCAACAGAGGAUUGAGCAUCA
B8: chr8:3623242:3623243:+_ENSMUSG00000087687_ENSMUST00000156380|mus_hu|motif|central (ssRNA)
RNA: GGGAGUUCUACAGUCCGACGAUCCUGCUGGGCGUCGCGAAGGAGCUUCUCCUCCCGCCGCUUCCGUAACCUCUCUUUGAAUUCCUCGGUCUCUUGAAGCUUCUCAGGUGGCCACAGCUCCCUCUUGCGCUGUAUGACAUCGUCCAACAGAGGAUUGAGCAUCA
B9: chr6:40197388:40197389:+_ENSMUSG00000057716_ENSMUST00000061740|mus_mus|mus_mus_mus_hu_False|98_98 (ssRNA)
RNA: GGGAGUUCUACAGUCCGACGAUCGAGACACUGGGGUGGAUGGCACCCACCUCUGUUUGGGUGCUAGCCACUAAGACUGUUAUUUUGGGAUUCAUGGCCUUGAAUAUCAAGAGGGAAAGGAAGAGGAUGGAAAGAGUCAAGAGUCAACAGAGGAUUGAGCAUCA
B10: chr3:57569700:57569701:-_ENSG00000168374_ENST00000303436|hu_hu|FALSE|FALSE (ssRNA)
RNA: GGGAGUUCUACAGUCCGACGAUCCACAAAAAUAAGACCCUGGGUAUUCUGGAAGUAAUGCUUCCAGAGAGGCCUAAUUCUAUCUUGACCACCAACAUCCCAUACUGUGAAACAAAUGUUCUUAUAUUCUACUGUUUCCACAUUCAACAGAGGAUUGAGCAUCA
B11: 60593859_60597351_2893_3pUTR_ENSMUSG00000049323_ENSMUST00000056907|mouse|control|control (ssRNA)
RNA: GGGAGUUCUACAGUCCGACGAUCCAGCGUAGGGUCUUGCUGUCCAGGUCCAGGAUGCUUGUAUAACGGCUGUAACGGCUCAGGGUAUGGAGGGUACCCACAUUGGCAGGAGAGGCCACUCUUUGUAGGCCAAUAAGCUUCCACCAACAGAGGAUUGAGCAUCA
B12: chr13:108984363:108984364:+_ENSMUSG00000021694_ENSMUST00000054835|mus_hu|FALSE|FALSE (ssRNA)
RNA: GGGAGUUCUACAGUCCGACGAUCCCCACAUUUAGGGCUAAUUUAGCUGUCAGGAAUAGACCAUACAGUUGAAAAAAACACAGUCUCAUUUAAAAAGUUUCAGCAGAGACAAAAAGGUACUAAAGAUGAUAUUCAUCCUUCUUCCAACAGAGGAUUGAGCAUCA
B13: chr15:98516890:98516891:+_ENSG00000140450_ENST00000268042|hu_mus|motif|central (ssRNA)
RNA: GGGAGUUCUACAGUCCGACGAUCAAUAAAAAUUUUAAAAAGCAAGUGAACUUACCAAAAAAAAAAACACAACCUUUGCCGGCUGAGUUUCUUAUUGUGCAAAACAGAGACACAGAAAGUAAAGUUGUGCUCCAGGGGAAGGGACAACAGAGGAUUGAGCAUCA
B14: chr8:26941818:26941819:-_ENSMUSG00000031575_ENSMUST00000166078|mus_hu|FALSE|FALSE (ssRNA)
RNA: GGGAGUUCUACAGUCCGACGAUCACUAGUAGACACAGCACUGCUCUGUUUUUGGUUGUCAUAAGCAGGACCAAUGUUACUAAGGUCCUGAUCCAAAAGUCCAAAUUUGGGGUAAUCUUCUUCUGGAUCUUUACUGCCUGGAUCCAACAGAGGAUUGAGCAUCA
B15: chr7:5008886:5008887:+_ENSMUSG00000035228_ENSMUST00000045543|mus_hu|FALSE|FALSE (ssRNA)
RNA: GGGAGUUCUACAGUCCGACGAUCCUCAUCGCGGGCCACUGCCAGGCCUAAGGAAGAGGCAGGUGCAGGGGGAAACUGCCCCAACUUCCCAGGGUAGGAGGAGGUCCAGCCCGUGCGCGCUGCCUCCUCUACCUUCGGGGCCCCCAACAGAGGAUUGAGCAUCA
B16: chr6:114281168:114281169:-_ENSG00000196591_ENST00000368632|hu_hu|hu_hu_hu_mus_True|38_88 (ssRNA)
RNA: GGGAGUUCUACAGUCCGACGAUCUUCCAUUUUUCGGUAUAAACCAUAAUUUAACAGCAAGUUAUGAGUCAUCCGGAUUCUAUGAGGCUUCAUGGGAUGACCCUGUCCAUAAUAAUAAUUGCCAAUAUCACCAUCAUAGUAGUACAACAGAGGAUUGAGCAUCA
B17: chr2:35989780:35989781:-_ENSMUSG00000026889_ENSMUST00000028251|mus_mus|motif|central (ssRNA)
RNA: GGGAGUUCUACAGUCCGACGAUCGCAUUCUCCAGGGGAAGAGUUUUGGUUUCUGUUUCCAUCAAUCUCUGAGAAAUACUGCGGGCCUCAGAGCUGUGCCCUCAGCUCAUGCCCCGAAAGCAGCUUCCGACGCUGGGGUCCGAGCAACAGAGGAUUGAGCAUCA
B18: chr4:76721835:76721836:+_ENSG00000138768_ENST00000264904|hu_mus|hu_hu_hu_mus_True|38_68 (ssRNA)
RNA: GGGAGUUCUACAGUCCGACGAUCGUUUGGCUGGGGUUUCUGAGACGCUCUGGAAUAUAACUCAUGUUGCUAAUAAAAUCCUAGUUUCUCUAUGAAAUCUCUUUGCCCAAUCCUCUUCUCUAUUAGUUGCUUUAGUUUCUCUUUCAACAGAGGAUUGAGCAUCA
B19: chr6:114281168:114281169:-_ENSG00000196591_ENST00000368632|hu_hu|hu_hu_hu_mus_True|78_78 (ssRNA)
RNA: B16 RNA with A53G, A66G, U105G
B20: chr7:75932113:75932114:+_ENSG00000106211_ENST00000248553|hu_hu|hu_hu_hu_mus_False|78_78 (ssRNA)
RNA: GGGAGUUCUACAGUCCGACGAUCCUGCGACCACUCAUCGGGCAACCGGGGCACCCCGAAGGCCUGGUCGAAGAGGCGGCUGUGUGCAGGGUACCAGUCCCGGAAUGGUUCCCAGCUCGGGCUCCGCAGCAGCGAGAAGGGCACCAACAGAGGAUUGAGCAUCA
B21: chr8:113366719:113366720:-_ENSMUSG00000033732_ENSMUST00000042012|mus_hu|motif|central (ssRNA)
RNA: GGGAGUUCUACAGUCCGACGAUCCAUAUUCUUAGAUGGCUGGUAUUCCAAAAUAACAAUUCGACCAGAGUCACUGCCAACGGCAAUGUAGUCUUUGGUGCCACCUGUCAGCCUAAAGGCCAUGAGUGACCGGAUAACACCGAACAACAGAGGAUUGAGCAUCA
B22: chr2:9724522:9724523:-_ENSG00000134308_ENST00000238081|hu_hu|motif|central (ssRNA)
RNA: GGGAGUUCUACAGUCCGACGAUCGGCUUUUUUGGGACUACAGUCAAUGAUUAGCAACACACAAUAGUGGUCCAACUCUCGGAAUAACAAUCACUAGACAAACUGGACACCCUCUCACAUGUGCACAAAUCUGCAUGGAAAAGUCAACAGAGGAUUGAGCAUCA

Each binder was assayed against T1, UNK ZnF1-3 (assay: nsRBNS (natural sequence RNA bind-n-seq); RBNS binding buffer (assumed for nsRBNS): 25 mM Tris pH 7.5, 150 mM KCl, 3 mM MgCl2, 0.01% Triton X-100, 500 ug/ml BSA, 20 U/ml SUPERase-In, 4 C; UNK is unkempt and MSI1 is Musashi-1; names of the RNAs are library labels; protein concentration not given here; high values mean tight binding).

Binder | binding signal
B1 | 0.667 enrichment R
B2 | 0.98 enrichment R
B3 | 0.957 enrichment R
B4 | 0.873 enrichment R
B5 | 0.826 enrichment R
B6 | 1.32 enrichment R
B7 | 0.856 enrichment R
B8 | 0.373 enrichment R
B9 | 1.69 enrichment R
B10 | 1.04 enrichment R
B11 | 1.01 enrichment R
B12 | 0.929 enrichment R
B13 | 1.38 enrichment R
B14 | 0.652 enrichment R
B15 | 0.569 enrichment R
B16 | 0.918 enrichment R
B17 | 0.754 enrichment R
B18 | 0.449 enrichment R
B19 | 0.636 enrichment R
B20 | 0.63 enrichment R
B21 | 0.556 enrichment R
B22 | 1.6 enrichment R

— PMC12136788
